Values joined by “and” are separate entries in the source; they are usually repeats but may differ in a detail not shown here. Identical values can stand only once. Screen size: about 420,000 compounds; about 50,000 (12%) were called active. The inconclusive results got no clear call from the source; some entries with a clear call stand among them for comparison. Calls come from the whole dose curve; as a rule, active = well fitted inhibition curve with a large enough effect; inconclusive = small, poorly fitted or top-dose-only effect; inactive = flat fitted curve, though single readings scatter. Where the call is inconclusive, the potency comes from a doubtful curve fit.
experiment: qHTS for Inhibitors of human tyrosyl-DNA phosphodiesterase 1 (TDP1): qHTS in cells in presence of CPT; settings: chicken DT40 Tdp1-/-;hTDP1 cells + 20 nM CPT, ATP luminescence, 48 h; activity change, negative = growth inhibition: at 46.2 µM (top of the series); note: nearly all actives have a fitted effect of over 55% in size
Outline: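 Chicken DT40 Tdp1-/- cells complemented with human TDP1, 400 cells/well, exposed to compounds plus 20 nM camptothecin for at least 48 h at 37 C; viability read as ATP content by CellTiter-Glo luminescence.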
% is set by controls: 0 for no effect and ±100 for the full control effect; potency is the fitted concentration of half-maximal effect; tags give direction and shape of the fitted curve.

Structure (SMILES) | activity change, negative = growth inhibition | Potency
CCOc1ccc(CNc2ccc(S(N)(=O)=O)cc2)cc1 | inconclusive: -33.6% [inhibitor] | –
CCCCc1nnc(SC(C)C(=O)Nc2nccs2)n1C (centres undefined) | inactive: 14.6% | –
CC(C)CCc1noc(CN2CCN(CC(=O)NC(C)C)CC2)n1 | – | active: 25.9 µM
O=C(C[C@@H]1C=C[C@@H](NC(=O)Nc2cccc(F)c2)[C@@H](CO)O1)NCC1CCCCC1 | inactive: -2.59% | –
Cc1cc2c(=O)cc(-c3ccccc3)oc2c(C(=O)O)c1C | inactive: 1.7% | –
C#CCOCCOCCOCCNc1nc(N2CCOCC2)nc(N2CCN(C(=O)[C@H](C)n3cc(CCC(=O)O)nn3)CC2)n1 | inactive: 8.1% | –
Cc1ccc(-c2nc(CS(=O)(=O)CC(=O)Nc3cc(F)ccc3F)c(C)o2)cc1 | inactive: -18.2% | –
Cn1c(/C(C#N)=C/c2ccccc2Br)nc2ccccc21 | – | active: 14.6 µM
NC(Cc1ccccc1)c1csc(Nc2nccc(C(F)(F)F)n2)n1 (centres undefined) | – | active: 16.4 µM
Nc1[nH]c(C(=O)c2ccccc2)c(-c2ccc(Cl)cc2Cl)c1C(=O)c1ccc(Cl)c(Cl)c1 | – | active: 18.4 µM
Cc1cccc(N2CCN(C(=O)c3cc4c(=O)[nH]c5ccccc5c4n3C)CC2)c1C | – | active: 18.4 µM
CCCOc1ccc(C(=O)NNC(=S)NC(=O)c2ccco2)cc1 | – | active: 3.26 µM
CCC(=O)Nc1ccc2nc(C)n(CC(=O)Nc3ccccc3)c(=O)c2c1 | – | inconclusive: 32.6 µM [inhibitor, partial curve, poor fit]
Cc1ccc(CNc2nc(CN3CCNC(=O)C3)nc3ccccc23)o1 | – | inconclusive: 25.9 µM [inhibitor, single point]
Cc1nn(-c2ccccc2)c(N)c1N=Nc1cccnc1 | – | inconclusive: 23.1 µM [inhibitor, single point]
O=c1[nH]c2ccc(Cl)cc2c(-c2ccccc2)c1SC(=S)N1CCOCC1 | – | inconclusive: 29.1 µM [inhibitor, single point]
C/C(=N\Nc1ccc([N+](=O)[O-])cc1[N+](=O)[O-])C(C)C(C)C (centres undefined) | – | inconclusive: 29.1 µM [inhibitor, single point]
CCOc1ccccc1NC(=O)CSc1nc2cccnc2n1C | inconclusive: -33.2% [inhibitor] | –
COc1ccnc(CSC(N)=Nc2ccc(F)cc2)c1 | – | inconclusive: 29.1 µM [inhibitor, single point]
CCc1cccc(NS(=O)(=O)c2ccc3c(c2)CC(C)N3C(=O)C2CC2)c1 (centres undefined) | – | active: 6.51 µM
Fc1ccccc1CSCc1nc2ccccc2[nH]1 | – | inconclusive: 29.1 µM [inhibitor, single point]
COC(=O)CCCn1c(C)cc(C(=O)CCl)c1C | – | active: 6.51 µM
O=C(N/N=C/c1cccc(O)c1)c1ccc(COc2ccccc2Br)cc1 | – | inconclusive: 11.6 µM [inhibitor, partial curve]
O=C(/C=C\Nc1ccccn1)c1ccc(Cl)cc1 | – | inconclusive: 20.6 µM [inhibitor, single point]
CC(=O)c1cc(CC=C(C)C)c(O)c(CC=C(C)C)c1O | – | inconclusive: 14.6 µM [inhibitor, partial curve, poor fit]

Structure (SMILES) | activity change, negative = growth inhibition | Potency
CCOC(=O)/C=C1\CC(=O)Nc2nonc2N1 | – | inconclusive: 1.16 µM [inhibitor, single point]
CCN1C=C(C(C)=O)C(=O)CC1 | inactive: -20.2% | –
COc1ccc(S(=O)(=O)N2Cc3ccccc3CC2C(=O)Nc2cc(Cl)ccc2Cl)cc1 (centres undefined) | – | inconclusive: 9.2 µM [inhibitor, partial curve, poor fit]
O=C(NC1=NCCS1)c1cccc(S(=O)(=O)N2CCOCC2)c1 | inactive: 1.17% | –
Fc1cccc(CSc2nnc3ccc(-c4ccncc4)nn23)c1 | – | inconclusive: 25.9 µM [inhibitor, single point]
O=C1C2=C(c3ccccc31)[N+](=O)C1CCCCC1N2[O-] (centres undefined) | – | active: 23.1 µM
Oc1ccc(-c2[nH]ncc2-c2nc3ccccc3s2)c(O)c1 | inactive: -5.33% | –
CCOCN(C(=O)Cn1c(COC)nc2ccccc21)c1c(C)cccc1CC | – | inconclusive: 23.1 µM [inhibitor, partial curve] and inconclusive: 14.6 µM [inhibitor, single point]
Cc1cccc(Nc2nnc(SC/C(O)=C(\C#N)c3nc4ccccc4[nH]3)s2)c1C | – | inconclusive: 29.1 µM [inhibitor, single point]
NC(=O)C1(Nc2ccc([N+](=O)[O-])cc2)CCCC1 | – | inconclusive: 25.9 µM [inhibitor, single point]
COc1ccc(Cl)cc1NC(=O)CSc1nccn1-c1ccc(Cl)cc1 | – | inconclusive: 25.9 µM [inhibitor, single point]
O=C(c1ccc(COc2ccc(Br)cc2)o1)N1N=C(C(F)F)CC1(O)C(F)F (centres undefined) | – | inconclusive: 29.1 µM [inhibitor, single point]
COc1ccc(N2CCN(C(=O)CSc3nc4[nH]ncc4c(=O)n3-c3cccc4ccccc34)CC2)cc1 | – | active: 6.51 µM
OCCC1CN(Cc2cccn2-c2nccs2)CCN1Cc1ccc(F)c(F)c1 (centres undefined) | – | active: 13 µM
OC1CCN(c2c3c(nc4cc(-c5cccc(F)c5)nn24)CCCC3)CC1 | – | active: 16.4 µM
COc1ccc(C2C(=O)N(C3CCCCCC3)CC(=O)N2Cc2ccccc2)cc1OC (centres undefined) | – | inconclusive: 35.5 µM [inhibitor, single point]
CSCCC(C(=O)NC(C)(C)C)n1c(-c2ccc3c(c2)OCO3)nc2ccccc21 (centres undefined) | – | active: 23.1 µM
CC(=O)Nc1ccc(NC(=O)c2sc3nc4c(c(-c5ccc(C)cc5)c3c2N)CCC4)cc1 | inactive: -1.29% | –
COC(=O)CNC(=O)C(NC(=O)c1ccc(Cl)cc1)C(C)C (centres undefined) | – | inconclusive: 32.6 µM [inhibitor, partial curve]
Cc1c(C(=O)Nc2ccc(Cc3ccncc3)cc2)cccc1[N+](=O)[O-] | – | inconclusive: 29.1 µM [inhibitor, single point]
O=C(OCc1nnc(-c2ccc([N+](=O)[O-])cc2)o1)c1ccc(F)c(S(=O)(=O)N2CCOCC2)c1 | – | inconclusive: 23.1 µM [inhibitor, single point]
COCCCNC(=S)N1CCCN(c2nc3cc(C)c(C)cc3cc2C#N)CC1 | – | inconclusive: 29.1 µM [inhibitor, single point]
Cc1cc(C)n2nc(SCc3nnc(SCc4ccccc4C)s3)nc2n1 | – | inconclusive: 23.1 µM [inhibitor, partial curve]
O=C(c1ccccc1OCc1ccc(Cl)cc1)N1CCN(c2ccccn2)CC1 | – | active: 23.1 µM
CN(CC(=O)Nc1ccc(OC(F)(F)F)cc1)C(=O)c1ccccc1SCC(=O)N1CCCC1 | – | active: 23.1 µM

Structure (SMILES) | activity change, negative = growth inhibition | Potency
O=C(c1ccc(Oc2ccc(C(F)(F)F)cn2)cc1)N1CCN(c2ccccc2)CC1 | inactive: -9.44% | –
Cc1cccc(NC(=O)CNC(=O)c2cn(Cc3ccccc3)nc2-c2cccnc2)c1C | inactive: -12.8% | –
CCOC(=O)c1ccccc1NC(=O)COC(=O)C1CC(=O)N(CCc2ccccc2)C1 (centres undefined) | inactive: -22.6% | –
c1ccc2c(c1)Sc1ccccc1N2CCN1CCCC1 | – | inconclusive: 33.5 µM [inhibitor, single point]
Cc1cccc(NC(=O)CSC2=Nc3ccccc3C3=NC(CC(=O)NCc4cccs4)C(=O)N23)c1 (centres undefined) | – | inconclusive: 29.1 µM [inhibitor, single point]
CCc1n[nH]c(=S)n1/N=C/c1c[nH]c2ccc(Br)cc12 | inconclusive: -36% [inhibitor] | –
CN1CCN(c2nc(-c3ccc(Br)cc3)nnc2-c2ccccc2)CC1 | – | active: 16.4 µM
COc1cccc(CNC(=O)C2CCCN(S(=O)(=O)N(C)c3ccc(F)cc3)C2)c1OC (centres undefined) | – | active: 3.26 µM
O=S1(=O)CCOC[C@H](c2ccccc2)N1Cc1cccc(F)c1 | – | inconclusive: 17.8 µM [inhibitor, single point]
CC1=C(C(=O)N(C(C)C)C(C)C)CC(CC(=O)NC2CC2)C(=O)N1Cc1ccc(C(C)(C)C)cc1 (centres undefined) | – | inconclusive: 18.4 µM [inhibitor, partial curve]
COc1ccc(N(CC(=O)Nc2cc(OC)ccc2OC)S(C)(=O)=O)cc1 | inactive: -5.52% | –
Cc1nc(SC(C)C(=O)NC2CCCCC2C)c2c(C)c(C)sc2n1 (centres undefined) | inactive: -27.8% | –
CC(=O)c1ccc(NC(=O)CSc2nnc(-c3ccoc3C)n2Cc2ccccc2)cc1 | – | inconclusive: 29.1 µM [inhibitor, single point]
COc1ccc(CCNS(=O)(=O)c2cccc(C(=O)O)c2)cc1OC | – | active: 20.6 µM
COc1ccccc1C1CC(c2ccccc2)=NN1C(=O)c1ccccc1 (centres undefined) | – | inconclusive: 29.1 µM [inhibitor, single point]
CCOC(=O)c1cc2n(c1/N=C/N(C)C)-c1ccccc1C2=O | – | inconclusive: 9.2 µM [inhibitor, partial curve]
CCOc1ccccc1C(=O)Nc1nnc(CC)s1 | – | active: 16.4 µM
O=C1CC(N2CCCCCC2)C(=O)N1c1ccc2c(c1)OCO2 (centres undefined) | – | active: 3.66 µM
O=C(COc1ccccc1C(=O)Nc1ccccc1)Nc1ccccc1-c1ccccc1 | – | active: 12.6 µM
CNC(=O)/C(C#N)=C/c1c(F)cccc1Cl | – | active: 11.6 µM
COc1cccc(OCc2cc(/C=N/Nc3ccc(C(=O)O)cc3)ccc2OC)c1 | – | active: 20.6 µM
NC(=O)C1=C(N=C2CCCCC2)CCCC1 | inactive: -11.5% | –
Cc1c(NC(=O)C(C)OC(=O)c2ccc([N+](=O)[O-])s2)c(=O)n(-c2ccccc2)n1C (centres undefined) | – | active: 23.1 µM
COc1ccc(-c2nc3cc(C)ccc3cc2CN(C(=O)c2ccc(C)s2)C2CC2)cc1OC | inactive: -11.9% [at 9.04 µM] | –

— PubChem BioAssay AID686979 (National Center for Advancing Translational Sciences (NCATS), 2013)
